From PubChem BioAssay AID1347120 (National Center for Advancing Translational Sciences (NCATS), 2019)
Hit rate of the full screen: of about 390,000 compounds, about 930 (0.24%) were called active. This list was built around the results that the source calls inconclusive (neither active nor inactive); the mix of calls is not that of the screen. Calls follow the shape of the dose curve; as a rule, active = well fitted activation curve with a large enough effect; inconclusive = small, poorly fitted or top-dose-only effect; inactive = no such curve, though single readings can be large or run the other way. A potency beside an inconclusive call is a rough fit, not a confirmed value.

Experiment: qHTS for Suppressors of FUS Proteinopathy: Primary screen using FUS-linked yeast assay; also: nearly all actives have a fitted effect of over 55% in size;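 as to growth rescue (activation): plate controls were DMSO vehicle for no effect and reference control for full effect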
Settings: S. cerevisiae FUS-expressing, OD600, 24 h; Potency: growth rescue; growth rescue (activation): at 76.6 µM (top of the series)
Summary of the method: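 Galactose (2%) drives FUS expression in yeast precultured in raffinose; seeding density OD 0.005. Test compounds incubated 24hr at 30C and 99% humidity before absorbance at 600 nm was measured.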
Potency is read from the fitted curve at half-maximal effect; tags tell the direction and shape of the fitted curve.

| SMILES | Potency | growth rescue (activation) |
| --- | --- | --- |
| CCOc1ccccc1NC(=O)c1ccccc1NC(=O)c1ccco1 | inactive | – |
| O=C(Nc1cc(S(=O)(=O)N2CCOCC2)ccc1OCC(F)(F)F)C1CCCC1 | inactive | – |
| Cc1ccc(C)c(N2CCN(c3nc4ccc(Cl)cc4n4cnnc34)CC2)c1 | inactive | – |
| Cc1ccc(NC(=O)c2ccccc2F)nc1 | inconclusive: 11.2 µM [activator, partial curve, poor fit] | – |
| O=[N+]([O-])c1ccc(S(=O)(=O)N2CCn3cccc3C2c2ccccc2F)cc1 (centres undefined) | inconclusive: 35.5 µM [activator, single point] | – |
| O=C(CSc1nc2c([nH]c3ccccc32)c(=O)n1-c1ccc(F)cc1)NCc1ccc(F)cc1 | inactive | – |
| C=CCN=C1SC(C)C(=O)N1S(=O)(=O)c1ccccc1 (centres undefined) | inconclusive: 22.4 µM [activator, partial curve] | – |
| Cc1ccc(Cl)cc1NC(=O)C1CCN(C(=O)c2cnn(-c3ccccc3)c2-n2cccc2)CC1 | inconclusive: 35.5 µM [activator, single point] | – |
| COc1ccc2cc(C#N)c(Cl)nc2c1 | inactive | – |
| CCOC(=O)[C@@]12CN(C(=O)OC(C)(C)C)CC=C1N(Cc1ccc(OC)cc1)C(=O)[C@H]2CC(=O)NCc1cccc(C(F)(F)F)c1 | inconclusive: 3.98 µM [activator, full curve] | – |
| CCC(C)(C)NC(=O)C(c1ccncc1)N(Cc1ccc(C)cc1)C(=O)c1csnn1 (centres undefined) | – | inconclusive: 65.3% [activator] |
| COc1ccccc1N1CCN(C(=O)C2CCC(CNS(=O)(=O)c3ccc(NC(C)=O)cc3)CC2)CC1 (centres undefined) | inconclusive: 7.08 µM [activator, partial curve, poor fit] | – |
| C=CCOC(=O)C1=C[C@@H](c2csc3ccccc23)[C@H](CCCO)[C@@H](OCC)O1 | inconclusive: 28.2 µM [activator, single point] | – |
| Cn1cc(C(=O)Nc2ccc(C#N)cc2)c2ccccc2c1=O | inconclusive: 25.1 µM [activator, single point] | – |
| COc1cc(S(=O)(=O)Nc2ccc(C)cc2)ccc1N=Cc1c(C)[nH]n(-c2ccc(C)cc2)c1=O | inconclusive: 14.1 µM [activator, partial curve, poor fit] | – |
| Cn1c(-c2cccc([N+](=O)[O-])c2)cnc1NCc1ccc(C#N)cc1 | inactive | – |
| Cc1ccc(S(=O)(=O)Nc2cccc3c2O[C@@H](CN(C)C(=O)Nc2ccc4c(c2)OCO4)[C@H](C)CN([C@@H](C)CO)C3=O)cc1 | inconclusive: 15.8 µM [activator, partial curve, poor fit] | – |
| Cc1ccc(NC(=O)C2CCN(S(=O)(=O)c3ccc4c(c3)CCCN4C(=O)C3CCC3)CC2)cc1 | inconclusive: 22.4 µM [activator, partial curve, poor fit] | – |
| Cc1cc(C)nc(NS(=O)(=O)c2ccc(NC(=O)c3nc(SC(C)C)ncc3Cl)cc2)n1 | inconclusive: 31.6 µM [activator, partial curve, poor fit] | – |
| Cc1ccc(C2C(C#N)=C3N=C(N)c4ccccc4N3C3=C2C(=O)CCC3)cc1 (centres undefined) | inconclusive: 31.6 µM [activator, single point] | – |

| SMILES | Potency | growth rescue (activation) |
| --- | --- | --- |
| Cc1cccc(C(=O)NCCNC(=O)c2cccnc2)c1 | inconclusive: 28.2 µM [activator, partial curve, poor fit] | – |
| CCOc1ccc(Br)cc1S(=O)(=O)Nc1ccc(C(=O)OCC(=O)N(C)c2ccccc2)cc1 | inconclusive: 12.6 µM [activator, partial curve, poor fit] | – |
| COC(=O)CCCC1=CC2=C(c3ccccc3)C(=O)C(C)(OC(=O)C3CCCC3)C(=O)C2=CN1Cc1ccc2c(c1)OCO2 (centres undefined) | inconclusive: 31.6 µM [activator, single point] | – |
| C=CCNc1nc2c(c(=O)[nH]c(=O)n2C)n1CC(O)COc1ccc2ccccc2c1 (centres undefined) | inconclusive: 11.2 µM [activator, partial curve, poor fit] | – |
| Cc1ccc2nc(-c3ccc(NC(=S)NC4CC(C)(C)NC(C)(C)C4)cc3)sc2c1 | inconclusive: 35.5 µM [activator, partial curve, poor fit] | – |
| COC(=O)[C@]12C[C@H](CC(=O)NCC34CC5CC(CC(C5)C3)C4)C(=O)N(CCc3ccc(OC)c(OC)c3)C1=C[C@H](C(C)C)O[C@@H]2C1CC1 | inconclusive: 15.8 µM [activator, partial curve, poor fit] | – |
| Cc1ccc(Cn2ccnc2SCC(=O)Nc2ccccc2C(F)(F)F)cc1 | inactive | – |
| CCC(C)C(=O)Nc1nnc(CCc2ccccc2)s1 (centres undefined) | inactive | – |
| Cc1ccccc1Cn1ccc(NC(=O)c2cnn3c(C(F)(F)F)cc(-c4ccco4)nc23)n1 | inactive | – |
| Cc1ccc(NC(=O)CNc2cc(S(=O)(=O)N3CCOCC3)ccc2NCC2CCCO2)cc1F (centres undefined) | inconclusive: 39.8 µM [activator, single point] | – |
| O=C(/C=C/c1ccccc1)N/C(=C/c1ccccc1)C(=O)Nc1ccccc1O | inconclusive: 35.5 µM [activator, partial curve, poor fit] | – |
| C#CCCOC(=O)N1C2=NC(C(=O)OC)=C(C(=O)OC)[C@@H]3N(Cc4ccccc4)c4ccccc4[C@]23C[C@H]1C(=O)OC | inconclusive: 31.6 µM [activator, single point] | – |
| CCOc1ccc(NC(=O)N2CCC(c3ccc(C)cc3)C2)cc1 (centres undefined) | inconclusive: 28.2 µM [activator, single point] | – |
| Cc1nc2ccccn2c1C(=O)CSc1ccc(Cl)cc1Cl | inactive | – |
| CCOc1ccccc1N(C)C(=O)c1cc2c(=O)n(CC)c3ccccc3c2s1 | inconclusive: 5.62 µM [activator, full curve, poor fit] | – |
| CC(C)=CCC[C@](C)(OC1OC(COC2OCC(O)C(O)C2O)C(O)C(O)C1O)C1CC[C@]2(C)C1C(O)CC1[C@@]3(C)CCC(O[C@@H]4O[C@H](CO)C(O)C(O)C4O[C@@H]4OC(CO)C(O)C(O)C4O)C(C)(C)C3CC[C@]12C (some centres undefined) | inconclusive: 12.6 µM [activator, partial curve, poor fit] | – |
| Cc1cc(Cl)ccc1OCC(=O)N1CCC(c2nc3ccccc3o2)CC1 | inconclusive: 31.6 µM [activator, single point] | – |
| CCCCNC(=O)c1sc(=S)n2c1[nH]c(=O)c1ccccc12 | inactive | – |
| COc1ccccc1CNC(=O)CSCc1nc(-c2ccc(OC)c(OC)c2)oc1C | inactive | – |
| Cc1cccnc1NC(=S)Nc1ccc(Br)cc1Cl | inactive | – |

| SMILES | Potency | growth rescue (activation) |
| --- | --- | --- |
| Cc1ccc(C(=O)NCCSCc2ccc(Cl)cc2Cl)cc1[N+](=O)[O-] | inconclusive: 25.1 µM [activator, single point] | – |
| O=C(C1CCCN(S(=O)(=O)c2ccc(Cl)cc2)C1)N(Cc1cccs1)C1CC1 (centres undefined) | inconclusive: 28.2 µM [activator, partial curve, poor fit] | – |
| Nc1c(Cl)cc(-c2csc(N3CCCC3c3nc4cc(Cl)c(N5CCCCC5)cc4n3CCCO)n2)cc1Cl (centres undefined) | inconclusive: 50.1 µM [activator, single point] | – |
| C#CCOCCOCCOCCNc1nc(N2CCN(C(=O)CCCCCCCCCCNC(=O)[C@H]([C@@H](C)CC)n3cc(CCCCCN)nn3)CC2)nc(N2CCN(C(=O)CCCCCCCCCCNC(=O)[C@H](CO)n3cc(CCCCCN)nn3)CC2)n1 | active: 14.1 µM | – |
| Cc1c(Br)c([N+](=O)[O-])nn1CC(=O)NCc1ccco1 | inactive | – |
| Cn1c(=O)c2sccc2n2c(CCCC(=O)Nc3ccc(Oc4ccc(Cl)cc4)cc3)nnc12 | inactive | – |
| CC(C)(C)c1ccc(-c2nnc(SCC3CCCCO3)n2-c2ccc(Cl)cc2)cc1 (centres undefined) | inactive | – |
| CCOc1ccccc1CNC(=O)CCn1ccc2cc(S(=O)(=O)N3CCCCC3)ccc21 | inconclusive: 35.5 µM [activator, single point] | – |
| CC(=O)N1c2c(cc(Br)cc2S(=O)(=O)N2CCN(c3ccccc3)CC2)CC1C (centres undefined) | inconclusive: 15.8 µM [activator, partial curve, poor fit] | – |
| COCCCNC(=O)c1ccc(Cn2c(=O)c3ccccc3n(Cc3ccccc3C#N)c2=O)cc1 | inconclusive: 44.7 µM [activator, single point] | – |
| Cc1ccc(Cl)cc1N1CCN(C(=O)c2ccc3nc(N4CCC(C)CC4)sc3c2)CC1 | inconclusive: 39.8 µM [activator, single point] | – |
| CCOC(=O)c1cc(-c2ccccc2)n(CCC(=O)Nc2nc3c(C)cccc3s2)c1C | inactive | – |
| CCOC(=O)[C@]12CCC=C1N(Cc1ccc(Cl)cc1Cl)C(=O)[C@H](CC(=O)N1CCSCC1)C2 | inconclusive: 14.1 µM [activator, partial curve] | – |
| Cc1ccccc1NS(=O)(=O)c1ccc2[nH]c3c(c2c1)CCCCC3 | active: 35.5 µM | – |
| O=C(O)c1ccc(COc2ccccc2/C=C2/NC(=O)N(c3cccc(Cl)c3)C2=O)cc1 | inconclusive: 4.47 µM [activator, full curve] | – |
| COc1cc(-c2cc(NC=O)c3ncc(-c4ccc(C(C)=O)cc4)n3c2)ccc1O | inconclusive: 35.5 µM [activator, single point] | – |
| COc1ccc(OC)c(C2C(C#N)=C(N)Oc3c2c(C)nn3-c2cccc(Cl)c2)c1 (centres undefined) | inconclusive: 39.8 µM [activator, partial curve, poor fit] | – |
| CCCCn1c(NC(=O)c2ccccc2)c(C#N)c2nc3ccccc3nc21 | inactive | – |
| O=C(NCc1ccccc1)c1ccc2c(=O)n(CCCN3CCCC3=O)c(=S)[nH]c2c1 | inconclusive: 28.2 µM [activator, partial curve, poor fit] | – |
